{"source": "paper PMC4336329", "about": "(PLoS ONE, 2015)", "note": "About 2,200 (0.71%) of roughly 310,000 compounds showed an effect of 50% or more. Effects have a minus sign here. Some of the results follow."}
{"biological_target": "human ether-à-go-go-related gene (hERG) potassium channel (human, UniProt Q12809)", "sequence (Q12809 whole entry, looked up)": "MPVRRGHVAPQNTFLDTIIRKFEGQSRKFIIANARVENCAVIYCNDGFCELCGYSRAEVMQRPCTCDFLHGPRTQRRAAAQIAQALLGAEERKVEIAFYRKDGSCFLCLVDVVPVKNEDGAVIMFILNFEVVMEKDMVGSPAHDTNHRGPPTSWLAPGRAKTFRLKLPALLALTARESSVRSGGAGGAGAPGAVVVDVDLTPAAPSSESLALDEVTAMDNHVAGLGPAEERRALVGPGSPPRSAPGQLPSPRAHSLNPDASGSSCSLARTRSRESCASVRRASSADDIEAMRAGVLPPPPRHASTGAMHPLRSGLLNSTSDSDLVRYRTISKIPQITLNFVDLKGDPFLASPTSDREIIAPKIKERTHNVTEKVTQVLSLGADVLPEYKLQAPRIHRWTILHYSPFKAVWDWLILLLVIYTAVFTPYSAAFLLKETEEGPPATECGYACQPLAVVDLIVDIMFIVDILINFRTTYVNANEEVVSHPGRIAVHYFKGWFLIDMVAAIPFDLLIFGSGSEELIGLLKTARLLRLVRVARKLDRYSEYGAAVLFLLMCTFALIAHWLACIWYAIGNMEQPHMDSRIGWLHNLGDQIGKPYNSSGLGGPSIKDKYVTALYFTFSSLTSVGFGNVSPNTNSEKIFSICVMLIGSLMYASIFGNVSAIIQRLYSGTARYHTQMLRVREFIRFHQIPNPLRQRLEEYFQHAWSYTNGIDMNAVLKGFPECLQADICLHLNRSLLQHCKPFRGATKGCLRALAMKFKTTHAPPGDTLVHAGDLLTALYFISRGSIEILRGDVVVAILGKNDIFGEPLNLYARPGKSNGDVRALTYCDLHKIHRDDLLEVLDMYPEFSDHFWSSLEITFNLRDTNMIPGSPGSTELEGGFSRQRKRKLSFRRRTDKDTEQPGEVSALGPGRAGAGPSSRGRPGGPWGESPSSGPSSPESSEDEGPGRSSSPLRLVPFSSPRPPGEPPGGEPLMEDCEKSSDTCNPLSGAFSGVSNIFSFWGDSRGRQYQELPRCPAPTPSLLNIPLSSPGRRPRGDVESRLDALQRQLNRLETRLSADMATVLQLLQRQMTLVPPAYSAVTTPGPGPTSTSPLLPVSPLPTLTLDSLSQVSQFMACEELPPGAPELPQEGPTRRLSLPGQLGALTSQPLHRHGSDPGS", "test": "primary screen, population patch clamp on CHO cells stably expressing hERG", "units": {"hERG current change (%, negative = inhibition) at 1uM": "%"}}
{"smiles": "COc1cccc(NC(=O)CSCC(=O)Nc2ccccc2)c1", "hERG current change (%, negative = inhibition) at 1uM": 1.88}
{"smiles": "O=C(NCc1ccc2c(c1)OCO2)c1ccc(CS(=O)(=O)Cc2cccc(Cl)c2)o1", "hERG current change (%, negative = inhibition) at 1uM": 11.3}
{"smiles": "CCC(=O)Nc1c2c(nn1-c1ccc(C)cc1C)CSC2", "hERG current change (%, negative = inhibition) at 1uM": 12.8}
{"smiles": "CCOc1ccc(-n2ccnc2)nn1", "hERG current change (%, negative = inhibition) at 1uM": 5.02}
{"smiles": "O=C1/C(=C\\c2ccc(Br)o2)SC(=Nc2ccccc2)N1c1ccccc1", "hERG current change (%, negative = inhibition) at 1uM": 4.22}
{"smiles": "CCOC(=O)c1c(C)nc2cc(C)cc(C)n12", "hERG current change (%, negative = inhibition) at 1uM": 12.1}
{"smiles": "CN1CCCC(C(O)(c2ccccc2)c2ccccc2)C1", "note": "(stereo not drawn)", "hERG current change (%, negative = inhibition) at 1uM": 15}
{"smiles": "CCOc1c(Br)cc(/C=C2\\N=C(C)OC2=O)cc1Br", "hERG current change (%, negative = inhibition) at 1uM": 11.1}
{"smiles": "CCc1cccc(CC)c1-n1c(SCC(=O)c2c(N)n(C)c(=O)n(C)c2=O)nnc1-c1cccnc1", "hERG current change (%, negative = inhibition) at 1uM": 0.941}
{"smiles": "CCC(C)(C)n1nnnc1C(c1ccc(F)cc1)N1CCN(C(=O)c2ccco2)CC1", "note": "(stereo not drawn)", "hERG current change (%, negative = inhibition) at 1uM": 2.55}
{"smiles": "COc1cccc(C(C(=O)NC2CCCCC2)N(C(=O)c2ccccn2)c2cccnc2)c1", "note": "(stereo not drawn)", "hERG current change (%, negative = inhibition) at 1uM": 12.5}
{"smiles": "O=C(CNC(=O)c1[nH]cnc1C(=O)N[C@@H](Cc1ccccc1)C(=O)OCc1ccccc1)OCc1ccccc1", "hERG current change (%, negative = inhibition) at 1uM": 9.29}
{"smiles": "O=C(/C=C/Nc1cccc([N+](=O)[O-])c1)c1cccs1", "hERG current change (%, negative = inhibition) at 1uM": 14.2}
{"smiles": "CCNc1nc(NCC)nc(N/N=C/c2ccccc2)n1", "hERG current change (%, negative = inhibition) at 1uM": 14.6}
{"smiles": "Cc1ccc(S(=O)(=O)N2CCN(C(=O)/C=C/c3ccco3)CC2)cc1", "hERG current change (%, negative = inhibition) at 1uM": -16.5}
{"smiles": "O=C(NCC(=O)N1CCCC1)c1ccc(Br)cc1", "hERG current change (%, negative = inhibition) at 1uM": 16.7}
{"smiles": "CCCc1cc(C(=O)Nc2ccc(Cl)cn2)cs1", "hERG current change (%, negative = inhibition) at 1uM": 9.72}
{"smiles": "CCN(c1ccccc1)S(=O)(=O)c1csc(C(N)=O)c1", "hERG current change (%, negative = inhibition) at 1uM": 9.26}
{"smiles": "COCCn1c(-c2ccc(OC)cc2)cnc1SCC(=O)Nc1cc(C)on1", "hERG current change (%, negative = inhibition) at 1uM": 9.78}
{"smiles": "COCCn1c(COc2cccc(OC)c2)nnc1SCC(=O)N1CCOCC1", "hERG current change (%, negative = inhibition) at 1uM": 8.23}
{"smiles": "C[n+]1ccc(/C=C/c2ccccc2O)c2ccccc21.[I-]", "hERG current change (%, negative = inhibition) at 1uM": 8.85}
{"smiles": "COc1cccc(S(=O)(=O)Nc2cccc(C(=O)N3CCCCCC3)c2)c1", "hERG current change (%, negative = inhibition) at 1uM": 9.21}
{"smiles": "C[C@H](NC(=O)NCc1cccs1)C(=O)O", "hERG current change (%, negative = inhibition) at 1uM": 0.414}
{"smiles": "COc1ccc(NC(=O)NCCc2cccc(Cl)c2)cc1OC", "hERG current change (%, negative = inhibition) at 1uM": 11.2}
{"smiles": "COc1c(C)cc(C(=O)C2CCCN(C(=O)c3cc(C)n(C)n3)C2)cc1C", "note": "(stereo not drawn)", "hERG current change (%, negative = inhibition) at 1uM": 7.96}
{"smiles": "CN1CCC(N(C)S(=O)(=O)c2ccc(Cl)cc2)CC1", "hERG current change (%, negative = inhibition) at 1uM": 10.8}
{"smiles": "COC(=O)/C(C#N)=C1/C=Cc2ccccc2N1C", "hERG current change (%, negative = inhibition) at 1uM": 6}
{"smiles": "O=C1/C(=C/c2ccsc2)N2CCC1CC2", "hERG current change (%, negative = inhibition) at 1uM": 8.86}
{"smiles": "O=C(NCc1ccc2c(c1)OCO2)c1nc(Cn2cc(Br)cn2)no1", "hERG current change (%, negative = inhibition) at 1uM": 9}
{"smiles": "CCN(CC)c1ccc(C(=O)OCC(=O)N2CCN(c3ccccc3)CC2)cc1", "hERG current change (%, negative = inhibition) at 1uM": 13.5}
{"smiles": "CCCCCC(=O)Nc1cccc(C2=NOC3(C2)C[C@@H](C(N)=O)N(C(=O)CC(c2ccccc2)c2ccccc2)C3)c1", "note": "(stereo partly drawn)", "hERG current change (%, negative = inhibition) at 1uM": 6.04}
{"smiles": "CCOCCCNC(=O)/C(C#N)=C/c1ccc([N+](=O)[O-])o1", "hERG current change (%, negative = inhibition) at 1uM": 6.77}
{"smiles": "COc1ccccc1C(NC(=O)CC(C)C)c1c(O)ccc2ccccc12", "note": "(stereo not drawn)", "hERG current change (%, negative = inhibition) at 1uM": 17.6}
{"smiles": "O=C(NCC(c1ccco1)N1CCN(c2ccc(F)cc2)CC1)c1ccco1", "note": "(stereo not drawn)", "hERG current change (%, negative = inhibition) at 1uM": 1.06}
{"smiles": "Cc1nc2c(C#N)c[nH]n2c(=O)c1Cc1ccccc1", "hERG current change (%, negative = inhibition) at 1uM": 7.14}
{"smiles": "CC1=C(C(=O)N2CCOCC2)C(c2cccc(C)c2)NC(=S)N1", "note": "(stereo not drawn)", "hERG current change (%, negative = inhibition) at 1uM": 8.36}
{"smiles": "CN(C(=O)c1coc(=O)c2ccccc12)c1ccccc1Cl", "hERG current change (%, negative = inhibition) at 1uM": -0.432}
{"smiles": "CC(/C=N/N1C(=O)CSC1=S)=C\\c1ccccc1", "hERG current change (%, negative = inhibition) at 1uM": 14.6}
{"smiles": "Cc1cc(C)cc(N=Cc2ccc([N+](=O)[O-])s2)c1", "hERG current change (%, negative = inhibition) at 1uM": 9.42}
{"smiles": "O=C(CN1CCN(S(=O)(=O)/C=C/c2ccccc2)CC1)NCC(F)(F)F", "hERG current change (%, negative = inhibition) at 1uM": 0.919}
{"smiles": "COc1ccc2nc(NC(C)=O)sc2c1", "hERG current change (%, negative = inhibition) at 1uM": -7}
{"smiles": "CCCCC(=O)Nc1cc(OC)c(NC(=O)C2CCCCC2)cc1OC", "hERG current change (%, negative = inhibition) at 1uM": 12.1}
{"smiles": "CCC(=O)N1CCc2cc(-c3csc(NC(=O)c4ccco4)n3)ccc21", "hERG current change (%, negative = inhibition) at 1uM": 15}
{"smiles": "O=C(NNS(=O)(=O)c1cc(Cl)c(Cl)cc1Cl)c1cccnc1", "hERG current change (%, negative = inhibition) at 1uM": 6.67}
{"smiles": "COc1ccccc1N(CC(=O)NCCC1=CCCCC1)S(=O)(=O)c1ccccc1", "hERG current change (%, negative = inhibition) at 1uM": 0.363}
